{
  "source": "the supplement of paper PMC2702839",
  "note": "Structures can show the parent of a compound that is named as a salt. This is one part of the list.",
  "data": [
    {"test_system": "Schistosoma mansoni schistosomula", "experiment": "phenotypic hit in primary schistosomula screen (any phenotype vs DMSO control) (binary (1 = hit, 0 = no phenotype)); higher = active (phenotype induced)", "details": "1 µM; time (d): 7", "values": [
      {"compound": "C[C@](N)(Cc1ccc(O)c(O)c1)C(=O)O", "note": "[L-alpha-Methyl DOPA]", "phenotypic hit": "inactive: 0"},
      {"compound": "CC[C@H]1C(=O)OC[C@@H]1Cc1cncn1C", "note": "[isopilocarpine nitrate]", "phenotypic hit": "inactive: 0"},
      {"compound": "COc1c(CC(=O)c2cc3c(cc2O)OC(C)(C)C(O)C3)ccc2c1C=CC(C)(C)O2", "note": "(configuration not stated) [dihydromunduletone]", "phenotypic hit": "inactive: 0"},
      {"compound": "O=C(O)c1cn(C2CC2)c2cc(N3CCNCC3)c(F)cc2c1=O", "note": "[ciprofloxacin]", "phenotypic hit": "inactive: 0"},
      {"compound": "Cn1c(=O)[nH]c2ncn(C)c2c1=O", "note": "[1,7-Dimethylxanthine]", "phenotypic hit": "inactive: 0"},
      {"compound": "Cc1cc(C(C)(C)C)c(O)c(C(C)(C)C)c1", "note": "[2,6-di-t-butyl-4-methylphenol]", "phenotypic hit": "inactive: 0"},
      {"compound": "COc1c(CC=C(C)C)c2c(c3oc(=O)c(-c4ccc(OC(C)=O)cc4)c(OC(C)=O)c13)C=CC(C)(C)O2", "note": "[scandenin diacetate]", "phenotypic hit": "inactive: 0"},
      {"compound": "COc1cc(C(=O)NCc2ccc(OCCN(C)C)cc2)cc(OC)c1OC", "note": "[trimethobenzamide hydrochloride]", "phenotypic hit": "inactive: 0"},
      {"compound": "O=C(O)C1CC([C@@H]2CCCCN2)CN2CCCCC12", "note": "(some centres not stated) [aphyllic acid]", "phenotypic hit": "inactive: 0"},
      {"compound": "COc1ccc2c(c1)OC/C(=C/c1ccc(OC)c(OC)c1)C2=O", "note": "[sappanone a trimethyl ether]", "phenotypic hit": "inactive: 0"},
      {"compound": "CC1(C)C=Cc2c(cc3occ(-c4ccc5c(c4)OCO5)c(=O)c3c2O)O1", "note": "[robustone]", "phenotypic hit": "inactive: 0"},
      {"compound": "C[C@@H]1CC[C@H]2[C@](C)(CO)[C@@H](O)CC[C@]2(C)[C@@]12CC[C@@](CO)(CCO)O2", "note": "[lagochilin]", "phenotypic hit": "inactive: 0"},
      {"compound": "O=c1cc(CO)occ1O", "note": "[kojic acid]", "phenotypic hit": "inactive: 0"},
      {"compound": "C1CCC(C(CC2CCCCN2)C2CCCCC2)CC1", "note": "(configuration not stated) [perhexiline maleate]", "phenotypic hit": "inactive: 0"},
      {"compound": "CC(C)c1c(O)c(-c2cc3c(c(C(C)C)c2O)CCC2C(C)(C)CCC[C@]32C)cc2c1CCC1C(C)(C)CCC[C@]21C", "note": "(some centres not stated) [podototarin]", "phenotypic hit": "inactive: 0"},
      {"compound": "COC(=O)CCCOc1ccc(Cl)cc1Cl", "note": "[2,4-dichlorophenoxybutyric acid, methyl ester]", "phenotypic hit": "inactive: 0"},
      {"compound": "CCc1nc(N)nc(N)c1-c1ccc(Cl)cc1", "note": "[pyrimethamine]", "phenotypic hit": "inactive: 0"},
      {"compound": "CC(=O)[C@@]1(O)CC[C@H]2[C@@H]3C[C@H](C)C4=CC(=O)C=C[C@]4(C)[C@@]3(F)[C@@H](O)C[C@@]21C", "note": "[fluorometholone]", "phenotypic hit": "inactive: 0"},
      {"compound": "CC1(C)C(O)CC(=O)C2(C)C1CC(O)C1(C)C2CCC2(C)C(c3ccoc3)OC(=O)C3OC321", "note": "(configuration not stated) [1-deacetoxy-1-oxo-3,7-dideacetylkhivorin]", "phenotypic hit": "inactive: 0"},
      {"compound": "CC1(C)C(=O)C=C[C@@]2(C)C1CC(=O)[C@@]1(C)C3=CC(=O)O[C@@H](c4ccoc4)[C@]3(C)CCC12", "note": "(some centres not stated) [7-deacetoxy-7-oxodeoxygedunin]", "phenotypic hit": "inactive: 0"},
      {"compound": "CC(C)C1=CC2=CC[C@@H]3[C@](C)(CCC[C@@]3(C)C(=O)O)[C@H]2CC1", "note": "[abietic acid]", "phenotypic hit": "inactive: 0"},
      {"compound": "C[C@H]1C[C@H]2[C@@H]3CCC4=CC(=O)C=C[C@]4(C)[C@@]3(F)[C@@H](O)C[C@]2(C)[C@@]1(O)C(=O)CO", "note": "[betamethasone]", "phenotypic hit": "inactive: 0"},
      {"compound": "C[C@@H]1C[C@H]2[C@@H]3C[C@H](F)C4=CC(=O)C=C[C@]4(C)[C@@]3(F)[C@@H](O)C[C@]2(C)[C@H]1C(=O)COC(=O)C(C)(C)C", "note": "[diflucortolone pivalate]", "phenotypic hit": "inactive: 0"},
      {"compound": "Cc1ccc(Cl)c(Nc2ccccc2C(=O)O)c1Cl", "note": "[sodium meclofenamate]", "phenotypic hit": "inactive: 0"},
      {"compound": "CC(C(=O)O)c1ccc(N2Cc3ccccc3C2=O)cc1", "note": "(configuration not stated) [indoprofen]", "phenotypic hit": "inactive: 0"},
      {"compound": "CO[C@@]12[C@H](COC(N)=O)C3=C(C(=O)C(C)=C(N)C3=O)N1C[C@@H]1N[C@@H]12", "note": "[mitomycin c]", "phenotypic hit": "inactive: 0"},
      {"compound": "Cc1cc(/C=C/c2ccc3cc(N(C)C)ccc3[n+]2C)c(C)n1-c1ccccc1", "note": "[pyrvinium pamoate]", "phenotypic hit": "active: 1"},
      {"compound": "CCn1nc(C(=O)O)c(=O)c2cc3c(cc21)OCO3", "note": "[cinoxacin]", "phenotypic hit": "inactive: 0"},
      {"compound": "CCOC(=O)CCCCCCCCCCCCC1C=CCC1", "note": "(configuration not stated) [chaulmoogric acid, ethyl ester]", "phenotypic hit": "inactive: 0"},
      {"compound": "C[C@@H]1O[C@@H](O[C@H]2[C@H](O[C@H]3CC[C@@]4(C)[C@@H](CC[C@]5(C)[C@@H]4CC=C4[C@@H]6CC(C)(C)CC[C@]6(C(=O)O[C@@H]6O[C@H](CO[C@@H]7O[C@H](CO)[C@@H](O[C@@H]8O[C@@H](C)[C@H](O)[C@@H](O)[C@H]8O)[C@H](O)[C@H]7O)[C@@H](O)[C@H](O)[C@H]6O)CC[C@]45C)[C@]3(C)CO)OC[C@H](O)[C@@H]2O)[C@H](O)[C@H](O)[C@H]1O", "note": "[hederacoside c]", "phenotypic hit": "inactive: 0"},
      {"compound": "O=C(O[C@@H]1Cc2c(O)cc(O)cc2O[C@@H]1c1cc(O)c(=O)c2c(O)c(O)cc([C@H]3Oc4cc(O)cc(O)c4C[C@H]3O)c2c1)c1cc(O)c(O)c(O)c1", "note": "[theaflavin monogallates]", "phenotypic hit": "inactive: 0"},
      {"compound": "C[C@@H]1C[C@H]2[C@@H]3CCC4=CC(=O)C=C[C@]4(C)[C@@]3(F)[C@@H](O)C[C@]2(C)[C@@]1(O)C(=O)CO", "note": "[dexamethasone]", "phenotypic hit": "inactive: 0"},
      {"compound": "O=C(O)CCCc1ccccc1", "note": "[phenylbutyrate sodium]", "phenotypic hit": "inactive: 0"},
      {"compound": "O=C(O)CCCc1ccccc1", "note": "[phenylbutyric acid]", "phenotypic hit": "inactive: 0"},
      {"compound": "CC(C)NCC(O)COc1ccc(CC(N)=O)cc1", "note": "(racemic) [(±)-Atenolol]", "phenotypic hit": "inactive: 0"},
      {"compound": "Cc1cnc(NC(=O)C2=C(O)c3ccccc3S(=O)(=O)N2C)s1", "note": "[meloxicam]", "phenotypic hit": "inactive: 0"},
      {"compound": "NC1=NCCN1CC(=O)O", "note": "[cyclocreatine]", "phenotypic hit": "inactive: 0"},
      {"compound": "CC1(C)O[C@@H]2C[C@H]3[C@@H]4CCC5=CC(=O)C=C[C@]5(C)[C@@]4(F)[C@@H](O)C[C@]3(C)[C@]2(C(=O)CO)O1", "note": "[triamcinolone acetonide]", "phenotypic hit": "inactive: 0"},
      {"compound": "C1CCN2C[C@@H]3C[C@@H](CN4CCCC[C@@H]34)[C@H]2C1", "note": "[sparteine sulfate]", "phenotypic hit": "inactive: 0"},
      {"compound": "CC(=O)OCC(OC(C)=O)C(OC(C)=O)C(OC(C)=O)C(OC(C)=O)C(COC(C)=O)OC(C)=O", "note": "(configuration not stated) [persitol heptaacetate]", "phenotypic hit": "inactive: 0"},
      {"compound": "C=CCCCCCCCCCCC/C=C/C(O)COC(C)=O", "note": "(configuration not stated) [dehydroavocatin -1-acetate]", "phenotypic hit": "inactive: 0"},
      {"compound": "OC[C@H]1O[C@@H](n2cnc3c(NCc4ccco4)ncnc32)[C@H](O)[C@@H]1O", "note": "[kinetin riboside]", "phenotypic hit": "inactive: 0"},
      {"compound": "CC1CC(OC(=O)C(O)c2ccccc2)CC(C)(C)N1C", "note": "(configuration not stated) [eucatropine hydrochloride]", "phenotypic hit": "inactive: 0"},
      {"compound": "Cc1nnc(NS(=O)(=O)c2ccc(N)cc2)s1", "note": "[sulfamethizole]", "phenotypic hit": "inactive: 0"},
      {"compound": "CC(=O)O[C@@H]1CC2C(C)(C)C(=O)C3OC3[C@]2(C)C2CC[C@@]3(C)[C@H](c4ccoc4)OC(=O)C4OC43[C@@]21C", "note": "(some centres not stated) [epoxygedunin]", "phenotypic hit": "active: 1"},
      {"compound": "Nc1ccc(S(=O)(=O)Nc2ccnn2-c2ccccc2)cc1", "note": "[Sulfaphenazole]", "phenotypic hit": "inactive: 0"},
      {"compound": "CO/N=C(\\C(=O)N[C@@H]1C(=O)N2C(C(=O)O)=C(COC(N)=O)CS[C@H]12)c1ccco1", "note": "[cefuroxime sodium]", "phenotypic hit": "inactive: 0"},
      {"compound": "CCC(=O)c1c(O)cc(O)cc1O", "note": "[flopropione]", "phenotypic hit": "inactive: 0"},
      {"compound": "Nc1nc2[nH]c(=O)cnc2c(=O)[nH]1", "note": "[Isoxanthopterin]", "phenotypic hit": "inactive: 0"},
      {"compound": "CC1Cc2ccccc2N1NC(=O)c1ccc(Cl)c(S(N)(=O)=O)c1", "note": "(configuration not stated) [indapamide]", "phenotypic hit": "inactive: 0"},
      {"compound": "C[C@H](CCC(=O)O)[C@H]1CC[C@H]2[C@@H]3CC[C@@H]4C[C@H](O)CC[C@]4(C)[C@H]3C[C@H](O)[C@]12C", "note": "[deoxycholic acid]", "phenotypic hit": "inactive: 0"},
      {"compound": "CC(C)C[C@@H]1NC(=O)[C@H](CCCN)NC(=O)[C@H](C(C)C)NC(=O)[C@H](Cc2ccc(O)cc2)N[C@@H](CCC(=O)O)C(=O)N[C@@H](CC(N)=O)C(=O)[C@@H](Cc2ccccc2)NC(=O)[C@H](Cc2ccccc2)NC(=O)[C@@H]2CCCN2C(=O)[C@@H](Cc2ccccc2)NC1=O", "note": "[tyrothricin]", "phenotypic hit": "inactive: 0"},
      {"compound": "CN(C)C(=O)Nc1ccc(Cl)c(Cl)c1", "note": "[diuron]", "phenotypic hit": "inactive: 0"},
      {"compound": "CC1(C)C=CC(=O)[C@@]2(C)C1CC(=O)[C@]1(C)C2CC[C@@]2(C)[C@H](c3ccoc3)OC(=O)C3OC321", "note": "(some centres not stated) [deacetoxy-7-oxisogedunin]", "phenotypic hit": "inactive: 0"},
      {"compound": "CC(=O)OC1CCC2(C)C(CCC3(C)C2CC=C2C4C(C)C(C)CCC4(C(=O)O)CCC23C)C1(C)C", "note": "(configuration not stated) [ursolic acid acetate]", "phenotypic hit": "inactive: 0"},
      {"compound": "O=C(O)C1=CCCNC1", "note": "[Guvacine hydrochloride]", "phenotypic hit": "inactive: 0"},
      {"compound": "Cc1cc(CC(=O)O)n(C)c1C(=O)c1ccc(Cl)cc1", "note": "[zomepirac sodium]", "phenotypic hit": "inactive: 0"},
      {"compound": "COC(=O)CC[C@@H](C)[C@H]1CC[C@H]2[C@@H]3[C@H](O)C[C@@H]4C[C@H](O)CC[C@]4(C)[C@H]3C[C@H](O)[C@]12C", "note": "[cholic acid, methyl ester]", "phenotypic hit": "inactive: 0"},
      {"compound": "COc1c(O)cccc1O", "note": "[2-methoxyresorcinol]", "phenotypic hit": "inactive: 0"},
      {"compound": "CC12CCC(CC1)C(C)(C)O2", "note": "[cineole]", "phenotypic hit": "inactive: 0"},
      {"compound": "CC1(C)CC[C@]2(C(=O)O)CC[C@]3(C)C(=CC[C@@H]4[C@@]5(C)CC[C@H](O)[C@@](C)(CO)[C@@H]5CC[C@]43C)[C@@H]2C1", "note": "[hederagenin]", "phenotypic hit": "inactive: 0"},
      {"compound": "CC(C)/C(O)=C1/C(=O)O[C@@H](c2ccoc2)[C@]2(C)C(O)[C@@H](O)[C@@]34OC5(C)OC67CC(C)(C(O)[C@]6(O)[C@@H](O)[C@]3(O5)C12)[C@H](CC(=O)O)[C@]74C", "note": "(some centres not stated) [hydrolysis product of bussein]", "phenotypic hit": "inactive: 0"}
    ]}
  ]
}
